# Reference: publication PMC4336329 (PLoS ONE, 2015)
# In all, about 310,000 compounds went through this assay and about 14,000 (4.5%) showed an effect of 50% or more. The effect is printed as a negative number. Some of the results follow.
# Biological target: human ether-à-go-go-related gene (hERG) potassium channel (human, UniProt Q12809)
# Test: primary screen, population patch clamp on CHO cells stably expressing hERG
# 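Also: peak tail current of the secondary pulse compared with the same well before compound.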
# Sequence of human ether-à-go-go-related gene (hERG) potassium channel (Q12809 whole entry, looked up): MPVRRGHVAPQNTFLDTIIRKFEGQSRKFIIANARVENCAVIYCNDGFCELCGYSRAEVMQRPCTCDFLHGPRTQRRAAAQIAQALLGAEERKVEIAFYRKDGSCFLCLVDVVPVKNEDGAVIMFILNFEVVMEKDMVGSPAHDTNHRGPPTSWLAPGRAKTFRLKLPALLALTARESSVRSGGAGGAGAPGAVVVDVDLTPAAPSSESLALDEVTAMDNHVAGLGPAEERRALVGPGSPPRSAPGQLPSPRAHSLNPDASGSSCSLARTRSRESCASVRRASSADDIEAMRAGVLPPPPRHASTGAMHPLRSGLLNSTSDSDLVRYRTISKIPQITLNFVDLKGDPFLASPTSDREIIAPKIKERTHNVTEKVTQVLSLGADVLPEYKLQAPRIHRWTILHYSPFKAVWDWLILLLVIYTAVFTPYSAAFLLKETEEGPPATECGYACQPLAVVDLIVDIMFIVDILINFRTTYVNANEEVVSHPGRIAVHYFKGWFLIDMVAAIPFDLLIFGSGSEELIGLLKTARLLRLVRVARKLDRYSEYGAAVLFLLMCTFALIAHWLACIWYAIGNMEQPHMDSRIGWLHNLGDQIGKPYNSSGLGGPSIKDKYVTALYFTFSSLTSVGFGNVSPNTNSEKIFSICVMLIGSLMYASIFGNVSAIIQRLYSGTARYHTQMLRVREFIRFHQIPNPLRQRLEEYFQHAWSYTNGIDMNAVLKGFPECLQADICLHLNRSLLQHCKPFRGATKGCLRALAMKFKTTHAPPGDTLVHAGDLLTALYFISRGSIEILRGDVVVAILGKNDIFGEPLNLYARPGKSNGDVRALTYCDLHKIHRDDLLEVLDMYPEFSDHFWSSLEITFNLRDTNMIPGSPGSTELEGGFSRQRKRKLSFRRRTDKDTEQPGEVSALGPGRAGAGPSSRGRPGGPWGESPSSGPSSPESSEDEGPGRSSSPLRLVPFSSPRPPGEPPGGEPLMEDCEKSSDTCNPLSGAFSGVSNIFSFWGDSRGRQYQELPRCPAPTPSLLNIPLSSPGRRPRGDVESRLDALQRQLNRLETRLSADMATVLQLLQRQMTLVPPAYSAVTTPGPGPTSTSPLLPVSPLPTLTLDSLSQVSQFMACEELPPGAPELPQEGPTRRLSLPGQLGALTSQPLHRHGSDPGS
row,Compound,"hERG current change (%, negative = inhibition) at 10uM"
1,CNC(=O)c1c(NC(=O)CS(=O)(=O)c2ccc(Cl)cc2)sc(C)c1C,-21.9%
2,COc1ccc(C(=O)NCC(=O)NCC2COc3ccccc3O2)cc1 (stereo not drawn),-9.45%
3,COc1ccc(-c2cc3ccccc3oc2=O)cc1,8.45%
4,O=C(Nc1ccc(S(=O)(=O)Nc2nccc(C3Cc4ccccc4C(=O)O3)n2)cc1)c1ccccc1 (stereo not drawn),-6.29%
5,O=C(O)Cn1c(P(=O)(O)c2ccccc2)nc2ccccc21,12.9%
6,CC(=O)Nc1ccc(S(=O)(=O)NC2=NCN(c3cccc([N+](=O)[O-])c3)CN2)cc1,29.8%
7,CC(CC(=O)Nc1cc([N+](=O)[O-])ccc1Cl)c1ccccc1 (stereo not drawn),5.92%
8,CC(OC(=O)c1cc(Br)ccc1O)C(=O)NCc1ccc2c(c1)OCO2 (stereo not drawn),-0.383%
9,COc1ccc(C2C(C(=O)Nc3ccccc3)=C(C)Nc3nc(CCCO)nn32)cc1 (stereo not drawn),12.3%
10,O=C(CCN1C(=O)C2C3C=CC(C4CC34)C2C1=O)OCC(=O)c1ccccc1 (stereo not drawn),-12.3%
11,CCCc1cc(=O)oc2cc(C)cc(OCC(=O)O)c12,15.5%
12,COCCCn1c(SCC(=O)N2CCOCC2)nc2ccccc2c1=O,-5.65%
13,COc1ccc(CNC(=O)CSc2nc3c(oc4ccccc43)c(=O)n2CC2CCCO2)cc1 (stereo not drawn),-60.6%
14,COc1ccc(C(=O)Nc2c(Cl)cc(Cl)cc2C(=O)NCCN2CCOCC2)cc1,-15.6%
15,COc1cccc2c1O[C@H]1C(=O)CC[C@H]3CN(C)CCC231 (stereo partly drawn),16.5%
16,CCCn1c(SCc2ccccn2)nc2c1c(=O)n(C)c(=O)n2C,7.57%
17,OCCn1nc2c3ccccc3nc-2n(-c2ccccc2)c1=S,-9.49%
18,COc1ccc(OCC(=O)NNc2c3ccccc3nc3ccccc23)cc1,21.2%
19,COc1ccccc1C(C)NC(=O)c1cc(=O)[nH]c2ccccc12 (stereo not drawn),23.6%
20,CCC(C(=O)NC(C)(C)C)N(C(=O)Cn1nnc(-c2ccccc2F)n1)c1cnc2ccccc2c1 (stereo not drawn),21.4%
21,Cl.O=C(NCC1CCNCC1)c1ccncc1,13.4%
22,Cc1ccccc1CSCCNC(=O)c1ccc(N(C)S(=O)(=O)c2ccccc2)cc1,-18.4%
23,COc1ccc(C(=O)CSc2nncn2C)cc1,18.9%
24,CC(=O)c1ccc(N(C(=O)c2csnn2)C(C(=O)NC2CCCC2)c2ccccc2)cc1 (stereo not drawn),-54.9%
